Screen size: about 220,000 compounds; about 5,700 (2.6%) were called active. The inconclusive results got no clear call from the source; some entries with a clear call stand among them for comparison. The call rests on the fitted dose curve; in most records, active means well fitted inhibition curve with a large enough effect; inconclusive means small, poorly fitted or top-dose-only effect; inactive means no such curve, though single readings can be large or run the other way. Potencies of inconclusive entries are doubtful fits and often do not repeat.
biological target: Lysine-specific demethylase 5B (Homo sapiens) (UniProt Q9UGL1); assay: Primary screen for KDM5B Histone Demethylases FDH-coupled qHTS; settings: FDH-coupled NADH fluorescence (FDH is formaldehyde dehydrogenase); activity change, negative = inhibition: at 57.7 µM (top of the series) unless noted; further: nearly all actives have a fitted effect of over 70% in size; on activity change, negative = inhibition: 0% is about no effect
UniProt Q9UGL1, sequence (Q9UGL1 whole entry, looked up): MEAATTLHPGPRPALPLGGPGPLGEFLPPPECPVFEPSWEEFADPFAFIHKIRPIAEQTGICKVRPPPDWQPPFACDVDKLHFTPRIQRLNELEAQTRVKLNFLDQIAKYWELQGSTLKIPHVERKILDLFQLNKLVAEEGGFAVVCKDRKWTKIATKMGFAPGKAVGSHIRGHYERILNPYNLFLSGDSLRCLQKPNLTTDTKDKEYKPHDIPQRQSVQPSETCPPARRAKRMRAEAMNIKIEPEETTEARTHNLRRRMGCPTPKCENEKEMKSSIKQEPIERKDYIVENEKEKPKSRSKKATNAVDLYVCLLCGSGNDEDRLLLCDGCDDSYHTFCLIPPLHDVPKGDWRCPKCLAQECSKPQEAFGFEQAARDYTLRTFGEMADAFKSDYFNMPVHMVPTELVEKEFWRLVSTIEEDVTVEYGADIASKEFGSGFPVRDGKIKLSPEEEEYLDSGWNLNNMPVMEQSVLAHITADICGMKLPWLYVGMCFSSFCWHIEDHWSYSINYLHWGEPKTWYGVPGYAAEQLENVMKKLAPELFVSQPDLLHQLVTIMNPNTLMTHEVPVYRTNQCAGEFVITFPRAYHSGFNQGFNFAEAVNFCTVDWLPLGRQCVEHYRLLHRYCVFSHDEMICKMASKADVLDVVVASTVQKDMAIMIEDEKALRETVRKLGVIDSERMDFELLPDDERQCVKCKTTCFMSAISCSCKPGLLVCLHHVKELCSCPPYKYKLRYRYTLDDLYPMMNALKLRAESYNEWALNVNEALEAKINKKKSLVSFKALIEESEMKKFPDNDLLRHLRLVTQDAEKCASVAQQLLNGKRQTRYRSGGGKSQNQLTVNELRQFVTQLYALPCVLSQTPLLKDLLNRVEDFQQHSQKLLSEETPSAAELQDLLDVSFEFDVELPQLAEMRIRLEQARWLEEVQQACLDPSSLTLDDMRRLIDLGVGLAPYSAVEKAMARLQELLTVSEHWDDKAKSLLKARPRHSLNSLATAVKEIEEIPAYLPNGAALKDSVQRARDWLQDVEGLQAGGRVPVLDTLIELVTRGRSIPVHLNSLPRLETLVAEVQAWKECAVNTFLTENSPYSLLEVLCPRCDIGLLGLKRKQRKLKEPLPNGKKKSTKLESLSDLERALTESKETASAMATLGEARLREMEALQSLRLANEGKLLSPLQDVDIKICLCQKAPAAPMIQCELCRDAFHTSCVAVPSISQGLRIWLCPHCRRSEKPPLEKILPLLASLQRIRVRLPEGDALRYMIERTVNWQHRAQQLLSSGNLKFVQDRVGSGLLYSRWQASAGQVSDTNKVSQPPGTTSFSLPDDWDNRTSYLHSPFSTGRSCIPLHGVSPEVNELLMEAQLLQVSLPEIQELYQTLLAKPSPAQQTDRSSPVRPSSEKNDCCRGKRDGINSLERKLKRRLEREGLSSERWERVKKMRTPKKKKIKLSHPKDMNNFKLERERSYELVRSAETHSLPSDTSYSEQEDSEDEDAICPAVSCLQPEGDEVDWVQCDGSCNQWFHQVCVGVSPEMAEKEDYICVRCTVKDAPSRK
Method in brief: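 KDM5BΔAP (200 nM final) in 50 mM HEPES pH 7.5, 0.01% Tween-20 was preincubated 10 min at RT with compound over a concentration range. Substrate mix (H3K4me3 12.5 µM, α-KG 25 µM, Fe²⁺, ascorbate, NAD⁺, FDH) was added, and NADH fluorescence change over 30 min gave dose-response curves.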
Potency means the concentration at half of the fitted maximal effect; tags describe the fitted curve by direction and shape.

SMILES	Potency	activity change, negative = inhibition
Cn1ccc2c(C(=O)NCc3cccnc3)nc(-c3cccc(O)c3)cc21	active: 39.8 µM	
CCOc1ccccc1N(CC)C(=O)Nc1cn(C)c(=O)c2ccccc12	inconclusive: 31.6 µM [inhibitor, partial curve, poor fit]	
COc1ccc(OCC(=O)Nc2ccc(C(=O)OCc3cc(=O)n4nc(C)sc4n3)cc2)cc1	inconclusive: 28.2 µM [inhibitor, partial curve, poor fit]	
Cc1ccc(-c2nc3ccc(Cl)cn3c2Nc2ccc3c(c2)OCCO3)o1	inconclusive: 7.08 µM [inhibitor, partial curve, poor fit]	
O=C(Nc1ccc(OC(F)F)cc1)c1nc(S(=O)(=O)Cc2ccccc2F)ncc1Cl	inconclusive: 25.1 µM [inhibitor, partial curve, poor fit]	
COc1ccccc1-c1nnc([C@H]2CCN(CC(C)C)C2)o1	inconclusive: 39.8 µM [inhibitor, partial curve, poor fit]	
O=C(O)c1ccc(CN2Cc3[nH]cnc3C[C@H]2c2nc(-c3ccc(F)cc3)no2)cc1	inconclusive: 31.6 µM [inhibitor, single point]	
CC(=O)Nc1nc(-c2ccccc2)cc(-c2ccco2)c1C#N	inconclusive: 5.01 µM [inhibitor, full curve, poor fit]	
CC(=O)NC(C(=O)NC(C)c1ccc(Cl)cc1)C(C)C (centres undefined)	inconclusive: 22.4 µM [inhibitor, single point]	
CCn1ccc2cc(S(=O)(=O)N3CCCN(C(=O)Nc4ccccc4OC)CC3)ccc21	inconclusive: 4.47 µM [inhibitor, full curve, poor fit]	
CS(=O)(=O)N1CCN(C(=O)C2CC(=O)N(c3n[nH]c4ccccc34)C2)CC1 (centres undefined)	inconclusive: 10 µM [inhibitor, partial curve]	
CCCCCCCCCCS(=O)(=O)N/N=C/c1c[nH]c2ccccc12	inconclusive: 39.8 µM [inhibitor, single point]	
CC(C)Cc1nnc(NC(=O)c2ccc3ccn(C)c3c2)s1	inconclusive: 31.6 µM [inhibitor, partial curve, poor fit]	
Cc1onc(-c2c(F)cccc2Cl)c1C(=O)Nc1sc(C)c(C)c1C(N)=O		inactive: -1.32%
Cc1noc2c(-c3ccc(N4CCOCC4)cc3)cc(-c3cccnc3)nc12	inconclusive: 39.8 µM [inhibitor, partial curve, poor fit]	
COc1ccc(N2CC(NC(=O)/C=C\c3ccc(OC)c(OC)c3)CC2=O)cc1 (centres undefined)	inconclusive: 15.8 µM [inhibitor, partial curve, poor fit]	
Cn1c(=O)c2c(nc(Oc3ccccc3)n2Cc2ccc(F)cc2)n(C)c1=O		inactive: 10.6%
CCC(C)(C)C(=O)NCc1cc2c(nc1OC)CN(C1CCCC1)C2=O		inactive: -27%
CCOc1cccc(CNCC2CCCO2)c1 (centres undefined)		inactive: 3.33%
Clc1ccc(-c2nnc([C@H]3CCN(C4CCCCC4)C3)o2)cc1	active: 25.1 µM	
Cc1ccc(Cn2c(CNS(=O)(=O)c3c(C)cc(C)cc3C)nc3cccnc32)cc1	inconclusive: 1.41 µM [inhibitor, partial curve, poor fit]	
O=C(c1ccncc1)N1CCN(C(=O)N2CC3CC(C2)[C@H]2CCCC(=O)N2C3)CC1 (some centres undefined)		inactive: -5.02%

SMILES	Potency	activity change, negative = inhibition
Cc1c(C)n(Cc2ccccc2)c2ccc(C(=O)NC(C)c3ccccc3)cc12 (centres undefined)	inconclusive: 25.1 µM [inhibitor, partial curve, poor fit]	
O=C(NC1CCN(c2cc(-c3cccs3)[nH]n2)C1)c1ccccc1Cl (centres undefined)	active: 14.1 µM	
O=C(c1cc(-c2ccccc2F)n[nH]1)N1CCC2(CCCN(Cc3ccccc3F)C2)C1 (centres undefined)	inconclusive: 35.5 µM [inhibitor, partial curve, poor fit]	
COc1ccc(/C=C/c2ccc3c(c2)C(=O)N2CC[C@H](N)[C@H]2C(=O)N3)cc1	active: 35.5 µM	
COc1ccc(C2=NO[C@@H]3[C@@H]4C[C@@H]([C@H]5C(=O)N(C)C(=O)[C@@H]45)[C@H]23)c(OC)c1	inconclusive: 39.8 µM [inhibitor, partial curve, poor fit]	
O=C(NCc1ccncc1)c1cc(-c2ccc(F)cc2)nc2ccccc12	inconclusive: 28.2 µM [inhibitor, single point]	
Cc1cccc(OCCSc2nc3ccccc3n2CC(=O)N2CCCCC2)c1C	inconclusive: 1.78 µM [inhibitor, full curve, poor fit]	
O/N=C/c1ccc(OCc2ccc(Cl)c(Cl)c2)cc1		inactive: -14.3%
COc1ccc(C(C)=O)cc1CSCc1ccc(C#N)cc1		inactive: 2.28%
COCCC(=O)N1Cc2c(ncn2Cc2ccccc2)C[C@H]1C(=O)OC	inconclusive: 28.2 µM [inhibitor, partial curve]	
Cc1noc(-c2ccc(OC(F)(F)F)cc2)c1C(=O)NC(C)CCc1ccccc1 (centres undefined)		inactive: -26.1%
CCC(=O)N1CCCC1Cc1ccccc1 (centres undefined)		inactive: 17.1%
O=C(Nc1ccc(Br)cn1)c1coc(=O)c(Br)c1	inconclusive: 25.1 µM [inhibitor, single point]	
CCN(CC)CCNC(=O)CCc1c(C)nc2c(c1C)c(=O)n(C)c(=O)n2C	inconclusive: 25.1 µM [inhibitor, single point]	
O=C(NCCSC1CCCC1)C1CCCO1 (centres undefined)		inactive: 10.3%
CCCCN(C)CCCNC(=O)c1ccc2nc(N3CCCCC3)sc2c1	inconclusive: 35.5 µM [inhibitor, single point]	
N#C/C(=C\c1ccc(OC(=O)C2CC2)cc1)C(=O)Nc1cccc(C(F)(F)F)c1	inconclusive: 25.1 µM [inhibitor, partial curve, poor fit]	
O=C(NCc1ccc(N2CCOCC2)cc1)c1cc2c(s1)CN(C1CC1)C2	active: 11.2 µM	
CCc1nnc(NC(=O)c2cc(-c3ccc(C)o3)nc3ccccc23)s1	inconclusive: 20 µM [inhibitor, partial curve, poor fit]	
Cc1cc2oc(=O)c(CC(=O)NCCc3ccccc3)c(C)c2c2occ(C(C)(C)C)c12	inconclusive: 25.1 µM [inhibitor, partial curve, poor fit]	
COc1ccc(-c2cn3c(n2)sc2cc(C(=O)NC4CCCc5ccccc54)ccc23)cc1 (centres undefined)	inconclusive: 17.8 µM [inhibitor, partial curve, poor fit]	
CCN1CCC(N(Cc2ccc3c(c2)OCO3)C(=O)Nc2cc(Cl)ccc2C(=O)OC)CC1	inconclusive: 22.4 µM [inhibitor, single point]	

SMILES	Potency	activity change, negative = inhibition
CC(C)c1noc(CC2CCN(C(=O)c3cccc(N(C)C)c3)CC2)n1	inconclusive: 20 µM [inhibitor, single point]	
CN(c1ccccc1)c1ccc2nnc(-c3cc(C(=O)N4CCCCC4)ccn3)n2n1		inactive: -8.15% [at 86.2 µM]
O=C(/C=C/c1cccc(Br)c1)Nc1nn[nH]n1	inconclusive: 39.8 µM [inhibitor, partial curve, poor fit]	
COc1ccc(/C(=N/OC(=O)c2ccccc2Cl)c2nccc3cc(OC)c(OC)cc23)cc1OC	inconclusive: 25.1 µM [inhibitor, single point]	
CN1CCN(NS(=O)(=O)c2ccc(Cl)cc2)CC1	inconclusive: 17.8 µM [inhibitor, partial curve, poor fit]	
CN(CCC(=O)c1cccs1)CCC(=O)c1cccs1		inactive: 9.51%
CCCCN(CCCNC(=O)CN1N=C(c2ccccc2)CCC1=O)c1ccccc1	inconclusive: 17.8 µM [inhibitor, partial curve, poor fit]	
CCC(CC)NC(=O)c1cc2ccccc2cc1OC	inconclusive: 25.1 µM [inhibitor, partial curve, poor fit]	
COCCn1c(-n2nc(C)cc2C)nc2c1c(=O)n(CCc1ccccc1)c(=O)n2C		inactive: 12.6%
CCOc1cc(C2C(C(=O)OC)=C(C)NC3=C2C(=O)c2ccccc23)c(Br)cc1OC (centres undefined)	inconclusive: 8.91 µM [inhibitor, partial curve, poor fit]	
Cc1nc(-c2ccc3c(c2)-c2ccccc2C3)cs1		inactive: -4.81%
COc1cc(/C=C/C(=O)OC(C)C(=O)c2ccccc2)ccc1OCC#N (centres undefined)	inconclusive: 39.8 µM [inhibitor, single point]	
Cc1cccc(N2CCN(C(=O)c3ccc4c(c3)N(Cc3ccccc3F)C(=O)c3ccccc3S4=O)CC2C)c1 (centres undefined)	inconclusive: 31.6 µM [inhibitor, single point]	
Cc1c(CC(=O)NCc2ccccc2)c(=O)oc2c(C)c(O)ccc12	inconclusive: 7.08 µM [inhibitor, partial curve, poor fit]	
COc1ccc(-c2cc3nc(C)c(CCC(=O)N4CCN(c5ccccc5)CC4)c(C)n3n2)c(OC)c1	inconclusive: 22.4 µM [inhibitor, partial curve, poor fit]	
CCN(CC)Cc1cnc2c(C(=O)NC3CCNCC3)cnn2c1	inconclusive: 20 µM [inhibitor, partial curve, poor fit]	
CCCN1CCc2[nH]cnc2C12CCN(C(=O)c1ccc(CSC)o1)CC2	inconclusive: 17.8 µM [inhibitor, partial curve, poor fit]	
CCOC(=O)C1=C(O)c2ccccc2C(=O)/C1=C\c1ccc(C)cc1	inconclusive: 10 µM [inhibitor, partial curve, poor fit]	
CCN(CCNC(=O)c1cc2c(s1)CN(C1CC1)C2)c1cccc(C)c1		inactive: -29.9%
CCCCC(CC)CNC(=O)CCCc1nnc2n(CCC)c(=O)c3sccc3n12 (centres undefined)	inconclusive: 25.1 µM [inhibitor, single point]	
